Data from patent publication US10278957B2, “Opioid agonist peptides and uses thereof” (Protagonist Therapeutics, Inc., priority 2017, dated 2019).
Read-outs that look alike come from different tables or passages of the source. At least one peptide structure holds a part that was inferred or is arguable (an end, a ring closure or a residue). For some assays here: For at least one compound, name, drawing or mass did not settle the structure. Square brackets hold non-standard residues; d marks the D form. Peptide text beside a SMILES is read from it. Dmt = Cc1cc(O)cc(C)c1C[C@H](N)C(=O)O; β3hF = N[C@H](CC(=O)O)Cc1ccccc1; Sar = CNCC(=O)O

Tests used:
[1] = target: T1, δ-opioid receptor (DOR) (Homo sapiens, UniProt P41143); test: DOR agonist cAMP assay (HitHunter cAMP, forskolin-stimulated); assay type: cell-based; settings: read-out: DOR EC50
T1 construct: host or cells: cAMP Hunter CHO-K1 OPRD1 Gαi cell line
T1 sequence (P41143 whole entry): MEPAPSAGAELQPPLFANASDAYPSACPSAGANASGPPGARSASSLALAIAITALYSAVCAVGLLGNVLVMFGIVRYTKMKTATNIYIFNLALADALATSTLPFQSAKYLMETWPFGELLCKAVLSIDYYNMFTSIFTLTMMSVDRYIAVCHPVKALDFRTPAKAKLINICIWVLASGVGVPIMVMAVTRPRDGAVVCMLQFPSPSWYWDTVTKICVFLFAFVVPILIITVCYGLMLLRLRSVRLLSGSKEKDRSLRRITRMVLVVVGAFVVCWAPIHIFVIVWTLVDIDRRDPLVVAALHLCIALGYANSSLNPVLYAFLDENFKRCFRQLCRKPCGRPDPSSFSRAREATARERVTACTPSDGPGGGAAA
Protocol: (§1) The HitHunter® cAMP chemiluminescent assay kit (DiscoveRx, Cat# 90-0075 SM25) was used to detect cAMP production in cAMP Hunter™ Gαi cell lines over expressing either Human-ORPM1 (Discoverx, Catalog# 95-0107C2) or Human-ORPD1 (DiscoveRx, Catalog# 95-0108C2). Opioid agonist binding to the Gαi receptors inhibits the intracellular cAMP accumulation induced by forskolin, which activates adenylate cyclase and increases intracellular levels of cAMP.
(§2) Cells were cultured in media consisting of Ham's F-12 Nutrient Mix (Life Technologies, Catalog#31765035), 10% FBS (Life Technologies, Catalog# 16140-071), 4 mM GlutaMAX (Life Technologies, Catalog#35050-061), […] (Life Technologies), 100 ug/ml of Penn-Strep (Life Technologies) and 0.5 mg/ml Geneticin (Life Technologies, Catalog# 10131-027). The cultures were maintained at 37° C. under 5% CO2.
(§3) In preparation for cAMP assay, the cells were seeded at a density of 300,000 cells/ml in 100 ul of media/well in 96-well microplate. Wells that were designated for cAMP standards were left empty.
(§4) Opioid agonist serial dilutions were prepared in separate dilution plate (11-point series of 3× (3-fold) dilution) in Cell Assay buffer, including 3× forskolin for Gαi target. For Hunter CHO-K1 OPRM1 or CHO-K1 OPRD1 Gαi Cell Lines, the final forskolin concentration was 20 uM.
(§5) 15 ul of each 3× opioid agonist serial dilution was added in the presence of forskolin in duplicate to the designated wells. The final concentration of each dilution was at 3× of the final screening concentration. The assay plate was incubated for 30 min, at 37° C. under 5% CO2.
(§6) Cellular cAMP concentrations were measured using the HitHunter cAMP Assay kit following the manufacturer's protocol. HitHunter cAMP assay is a gain-of-signal competitive immunoassay based on Enzyme Fragment Complementation (EFC) technology. The kit uses β-galactosidase (β-gal) enzyme split into Enzyme Donor (ED) and Enzyme Acceptor (EA). The cellular cAMP and ED-labelled cAMP compete for anti-cAMP antibody. […] When cellular cAMP level is high, it competes for the anti-cAMP antibody, thereby releasing ED-cAMP to complement with EA to produce a luminescent signal. The amount of signal is directly proportional to the amount of cAMP in cells and can be quantified using cAMP standards. The assay plates were read using a PerkinElmer Envision instrument to detect the chemiluminescence signal in each well (luminescence reader at 0.1 to 1 second/well). Data analysis was performed using Graphpad Prism 7.EC50 was calculated by nonlinear regression, using the four-parameter hill equation.

[2] = target: T2, μ-opioid receptor (MOR) (Homo sapiens, UniProt P35372); test: MOR agonist cAMP assay (HitHunter cAMP, forskolin-stimulated); assay type: cell-based; settings: for EC50: read-out: MOR EC50
T2 construct: host or cells: cAMP Hunter CHO-K1 OPRM1 Gαi cell line
T2 sequence (P35372 whole entry): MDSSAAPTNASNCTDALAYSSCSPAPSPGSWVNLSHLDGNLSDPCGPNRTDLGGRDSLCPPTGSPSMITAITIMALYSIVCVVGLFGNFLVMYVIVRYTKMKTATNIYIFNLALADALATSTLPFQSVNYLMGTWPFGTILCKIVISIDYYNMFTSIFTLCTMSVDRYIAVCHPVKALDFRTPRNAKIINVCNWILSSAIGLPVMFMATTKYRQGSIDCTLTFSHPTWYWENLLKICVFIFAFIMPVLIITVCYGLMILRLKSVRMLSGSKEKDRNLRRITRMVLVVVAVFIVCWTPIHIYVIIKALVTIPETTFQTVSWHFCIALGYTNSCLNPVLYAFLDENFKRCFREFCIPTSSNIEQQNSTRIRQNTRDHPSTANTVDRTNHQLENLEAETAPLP
Protocol: as §1, §2, §3, §4, §5, §6

[3] = system: gastro intestinal motility; test: Gastro Intestinal Motility Charcoal Transit Assay; assay type: in vivo; settings: Table 4, orally dosed
Protocol: Animals were treated with 0.2 mL croton oil 96 and 72 hours before the gastro intestinal transit (GIT) assay. Animals were fasted overnight prior to charcoal meal dosing. Test and control articles were administered (PO, IP) followed by an oral dose of aqueous suspension of 5% charcoal in 10% gum arabic. […] Charcoal meal test were given 30 min post-test article dose. Twenty minutes after administration of the charcoal test meal, animals were euthanized via CO2 inhalation followed by cervical dislocation, and the small and large intestines were examined to evaluate GI transit and motility. GI transit is expressed as a percentage of the distance traveled by the charcoal test meal divided by the length of the intestine.

[4] = Table 3F, peptide dimers, cAMP assay

Structure (SMILES) | EC50 ([1]; DOR cAMP agonist activity) | EC50 ([2]; MOR cAMP agonist activity) | EC50 [1, 4] | also measured
Cc1cc(O)cc(C)c1C[C@H](N)C(=O)N[C@H](CCCNC(=N)N)C(=O)N[C@@H](Cc1c[nH]c2ccccc12)C(=O)N(C)CCC(=O)O [compound 11] | 10 to 50 nM | < 1 nM | – | –
Cc1cc(O)cc(C)c1C[C@H](N)C(=O)N[C@H](C)C(=O)NCC(=O)N[C@H](CC(=O)N(C)CC(=O)NCCCC[C@@H](NC(=O)CN(C)C(=O)C[C@H](Cc1ccccc1)NC(=O)CNC(=O)[C@@H](C)NC(=O)[C@@H](N)Cc1c(C)cc(O)cc1C)C(N)=O)Cc1ccccc1 [compound 270] | – | – | 1 to 10 nM | –
Cc1cc(O)cc(C)c1C[C@H](N)C(=O)N[C@H](CCCNC(=N)N)C(=O)N[C@@H](Cc1cccc2ccccc12)C(=O)N(C)CCC(=O)O [compound 13] | 1 to 10 nM | < 1 nM | – | –
CC[C@H](C)[C@@H](C(=O)NCCCC[C@H](NC(=O)[C@H]([C@@H](C)CC)N(C)C(=O)C[C@H](Cc1ccccc1)NC(=O)CNC(=O)[C@@H](C)NC(=O)[C@@H](N)Cc1c(C)cc(O)cc1C)C(N)=O)N(C)C(=O)C[C@H](Cc1ccccc1)NC(=O)CNC(=O)[C@@H](C)NC(=O)[C@@H](N)Cc1c(C)cc(O)cc1C [compound 269] | – | – | 1 to 10 nM | EC50 [2, 4]: 1 to 10 nM
Cc1cc(O)cc(C)c1C[C@H](N)C(=O)N[C@H](C)C(=O)NCC(=O)N[C@H](CC(=O)N(C)[C@@H](C)C(=O)NCCCC[C@H](NC(=O)[C@H](C)N(C)C(=O)C[C@H](Cc1ccccc1)NC(=O)CNC(=O)[C@@H](C)NC(=O)[C@@H](N)Cc1c(C)cc(O)cc1C)C(N)=O)Cc1ccccc1 [compound 268] | – | – | < 1 nM | EC50 [2, 4]: < 1 nM
Cc1cc(C(N)=O)cc(C)c1C[C@H](N)C(=O)N[C@H](C)C(=O)NCC(=O)N[C@H](CC(=O)N(C)CC(N)=O)Cc1ccccc1 [Seq. ID 70, H-Phe(2,6-dimethyl-4-CONH2)-a-G-bhF-Sar-NH2] | – | – | – | % inhibition of GI motility [3]: ** (** indicates between 50% and 100%); Ratio (MOR EC50/DOR EC50) ([2]; Table 4, MOR EC50 divided by DOR EC50): ** (** indicates between 0.3 and 0.6)
Cc1cc(O)cc(C)c1C[C@H](N)C(=O)N[C@H](C)C(=O)N[C@@H](C)C(=O)N[C@H](CC(=O)N(C)CC(N)=O)Cc1ccccc1 [compound 66] (H-[Dmt][dA]A[β3hF][Sar]-NH2) | < 1 nM | < 1 nM | – | –
Cc1cc(O)cc(C)c1C[C@H](N)C(=O)N(C)[C@H](C)C(=O)N[C@H]1Cc2ccccc2CN(CC(N)=O)C1=O [compound 8] | < 1 nM | < 1 nM | – | –
Cc1cc(O)cc(C)c1C[C@H](N)C(=O)N[C@H](C)C(=O)NCC(=O)N[C@H](CC(=O)N(C)CC(=O)NCCCC[C@H](NC(=O)CN(C)C(=O)C[C@H](Cc1ccccc1)NC(=O)CNC(=O)[C@@H](C)NC(=O)[C@@H](N)Cc1c(C)cc(O)cc1C)C(N)=O)Cc1ccccc1 [compound 267] | – | – | < 1 nM | –
C[C@@H](NC(=O)[C@@H](N)Cc1ccc(-c2nnn[nH]2)cc1)C(=O)NCC(=O)N[C@H](CC(=O)N(C)CC(N)=O)Cc1ccccc1 [compound 105] | 50 to 200 nM | 50 to 200 nM | – | –
Cc1cc(O)cc(C)c1C[C@H](N)C(=O)N[C@H](C)C(=O)NC1(C(=O)N[C@H](CC(=O)N(C)CC(N)=O)Cc2ccccc2)CCOCC1 [compound 65] | 50 to 200 nM | – | – | –
C[C@@H](NC(=O)[C@@H](N)Cc1ccc(O)c(O)c1)C(=O)NCC(=O)N[C@H](CC(=O)N(C)CC(N)=O)Cc1ccccc1 [compound 58] | 50 to 200 nM | – | – | –
